Data on 22 molecules can be found in paper PMC12136788.

To fix the notation:
T1: UNK ZnF1-3 (human, UniProt Q9C0B0 31-174)
T1 sequence: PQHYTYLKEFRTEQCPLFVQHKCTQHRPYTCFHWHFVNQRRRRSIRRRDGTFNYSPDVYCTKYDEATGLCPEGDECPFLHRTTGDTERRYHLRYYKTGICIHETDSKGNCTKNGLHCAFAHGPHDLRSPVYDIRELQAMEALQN

B1: chr9:95013113:95013114:-_ENSG00000196305_ENST00000443024|hu_hu|hu_hu_hu_mus_False|28_28 (ssRNA)
RNA: GGGAGUUCUACAGUCCGACGAUCCUCAGUCAGAAAGGGCGUGUAAGGGGCCAUCAGUCUGCACAGAGAAAGCAGGACACUGAACAGUGUCUCCAGAGCCAUGACACAAUCCUCCAUCCCACUCUCACCCUUUAACCUCCUCCUCAACAGAGGAUUGAGCAUCA
B2: chr10:71921676:71921677:-_ENSG00000079332_ENST00000373241|hu_mus|FALSE|FALSE (ssRNA)
RNA: GGGAGUUCUACAGUCCGACGAUCCACACUGCUGAAGCCAUUGUAGAUCCACUCAAAGAUGAAAGACAUUAUUGAUGCUUACAACGGCCCGAGGGGCUCCUCCGGCGGUGGCUGGCGGCGCGACCCUCCCUCAGAGCACACAGACAACAGAGGAUUGAGCAUCA
B3: chr1:163138135:163138136:-_ENSG00000143248_ENST00000313961|hu_mus|FALSE|FALSE (ssRNA)
RNA: GGGAGUUCUACAGUCCGACGAUCAUUGUAUGGAAUGACAAGGUCAACAGCAGAGUCUGGCUUCUGGAGGAGAAUUCCCAACUUGAUCUUGAUCUCCUUGGCCCUUUCCAGGCAUGAGUGCGGCAGAGCUGCCAGUCCCUUACACAACAGAGGAUUGAGCAUCA
B4: chr1:220276048:220276049:+_ENSG00000067704_ENST00000302637|hu_hu|hu_hu_hu_mus_True|88_108 (ssRNA)
RNA: GGGAGUUCUACAGUCCGACGAUCGCAAACAGCUUCAUUGGCGGGAAUCGUCCAAGGCUGGGUGGUCCAAACUAAAACGCUAACAGGGGAUGAGGCAUCUGUAAGAGACUCCAACUUCGGAGGAGGUCUCAGGAGGGGGAAUCUCAACAGAGGAUUGAGCAUCA
B5: 151261908_151262165_2732_CDS_ENSG00000143373_ENST00000336715|human|control|control (ssRNA)
RNA: GGGAGUUCUACAGUCCGACGAUCCUGAUGGGUGUUCUUGAGAUGUUCCAGCAUGGUCCUUUUUUGGGCAAAGAGCAGAGGACAAGACGGGCACUUAAAGACACUGACACGCUGGGGCAGCAAGUGCUGGUCGAAGUGUGAGGACAACAGAGGAUUGAGCAUCA
B6: chr13:29242638:29242639:+_ENSG00000132963_ENST00000380842|hu_mus|FALSE|FALSE (ssRNA)
RNA: GGGAGUUCUACAGUCCGACGAUCGAAUUCCAUCUGUAACUUCAGGGGAGCAAACAGACCCUGGAUGUUCCUCAGCGUGGAAAAGUUCAUCUUGUCCUGGUUGAGCUGGAAGUUUUUUUCUGAUAACUCGAGAGGGUGACUGGGCAACAGAGGAUUGAGCAUCA
B7: chr11:23194044:23194045:+_ENSMUSG00000020290_ENSMUST00000020538|mus_hu|FALSE|FALSE (ssRNA)
RNA: GGGAGUUCUACAGUCCGACGAUCCUGAAGAAAGAUUUGGUUGUUAACUGGAUUUCCAGGAUUUAAUGAUGUACUUAUUUUUCCUUCUUCAACCAAAUUAAACAUAUAUGCAAGAAUUGAUGCAUGCAUUGUUAAACCAGCAGUCAACAGAGGAUUGAGCAUCA
B8: 4763567_4763687_2468_3pUTR_ENSG00000101265_ENST00000379400|human|control|control (ssRNA)
RNA: GGGAGUUCUACAGUCCGACGAUCCACUGAUGCCCAGCUGCCUGUCAAGCUUCCUGAUAGGAGUCCCAGGGCACAGACUGUUCUUGCCCUUUUCUCCCAUUGGGGUUGGAUUUAAAGAUCACAUAGGUGGCUGCUCAGAGGAGCCAACAGAGGAUUGAGCAUCA
B9: chrX:7513246:7513247:-_ENSMUSG00000031161_ENSMUST00000115642|mus_hu|FALSE|FALSE (ssRNA)
RNA: GGGAGUUCUACAGUCCGACGAUCUAGGUAGUCAGCAUCACCCAUGCGGGGCCCGUUCCAUGCCACGUUGACGGUGAAGCCUGUGCCCGCAGCCCGGCCGAUCUGGCUGCUGGCACCCUCAUCCCCCAUGGGGAAGAAGGUGCCCAACAGAGGAUUGAGCAUCA
B10: chr1:21097501:21097502:-_ENSG00000127483_ENST00000312239|hu_hu|FALSE|FALSE (ssRNA)
RNA: GGGAGUUCUACAGUCCGACGAUCUUCUCUUUUCAGUGCUUGUUUAAGGAGAUAACCCCUUCUCUCCAGCUCCAGAGAAGGAUACUUAUGGAUGAUGUAUUUUCGAAUAGCAACCACUGAUGCACCACUCUUCUGGAAGCAUGCCAACAGAGGAUUGAGCAUCA
B11: chr1:60041781:60041782:+_ENSMUSG00000041040_ENSMUST00000036540|mus_hu|mus_mus_mus_hu_False|18_108 (ssRNA)
RNA: GGGAGUUCUACAGUCCGACGAUCAAGAGGAGUGAAUUAAAGUAAAUGCAGUAGUGGCAAAUUUUCUUUUAUUUUCCUUCACAAAAGAAAAUCUUUAUAACCCAGUCCUAGUCUUGGCAGAGAAAGCAGCUAUAAAUUCUGACUCAACAGAGGAUUGAGCAUCA
B12: chr1:53517203:53517204:+_ENSG00000116171_ENST00000408941|hu_hu|FALSE|FALSE (ssRNA)
RNA: GGGAGUUCUACAGUCCGACGAUCAGAAAAAGUUAUUUUAAUUUUCUAUUAAACAUUCUUCUCAAAGCAUUAUUUUAUCCUAUAUCUCACUGAAUUUUAAGAAAUAACAUUAGUAUUAGAAAAACUAGGAAAAAAGAUAAAUGCCAACAGAGGAUUGAGCAUCA
B13: chr16:33500690:33500691:+_ENSMUSG00000022811_ENSMUST00000165418|mus_mus|FALSE|FALSE (ssRNA)
RNA: GGGAGUUCUACAGUCCGACGAUCAACAAGAAAUGUUUGUCUGCUUUAGUCUGUUUCCUACCAAAGUUUAGGUGGAAAAAAGGAAACACACACUUUUUAUUUGCAGAAUAUAGCAAAAACAACUGGAAAAUUAUUUCCCUGAAACAACAGAGGAUUGAGCAUCA
B14: chr5:77712431:77712432:+_ENSG00000085365_ENST00000538629|hu_hu|FALSE|FALSE (ssRNA)
RNA: GGGAGUUCUACAGUCCGACGAUCCCAAUUAUUUUUUCUACCAUGUUGACUGAGGUUUUGCAUUUCUCGUUCCCGACGAUCUAAUUCUGCGGCUUUUCUUUCUAGUUCUUCCUGGCGCUUAAGAAGUUCAGCUUGGGCCAAUGCCAACAGAGGAUUGAGCAUCA
B15: chr8:87366250:87366251:-_ENSMUSG00000003814_ENSMUST00000003912|mus_hu|FALSE|FALSE (ssRNA)
RNA: GGGAGUUCUACAGUCCGACGAUCGGAGAGCAGAUGAAAUCUCAGGCCUGUGGCUUCUCCACACCACUGCCCCCCAGGUUGGAGGGGAGCUAAGAGAUGAGAGAAGGGGACAGAGGCAAGAAAAGAUGUUGAUCAAGAAAGAUGCAACAGAGGAUUGAGCAUCA
B16: chr12:42180722:42180723:-_ENSMUSG00000036295_ENSMUST00000043884|mus_hu|mus_mus_mus_hu_True|8_58 (ssRNA)
RNA: GGGAGUUCUACAGUCCGACGAUCCUGUAGGAGAAGAAUCUGUGUGUUAGCUGGCAAUCUGGCUGGGAAAGUUAAAAGCCCUAAAUCAUUACAAUCCACUGUAGAUGCUUCCAUAUAAAUGGAUCUGGGGGUAAACCAAGGCCUCAACAGAGGAUUGAGCAUCA
B17: 93743468_93745081_508_CDS_ENSMUSG00000054079_ENSMUST00000066888|mouse|control|control (ssRNA)
RNA: GGGAGUUCUACAGUCCGACGAUCAUUGUUCGACAUGUCAACUAUUUCCUCAUCUUCAUCAUCUUCAUCCACCCAAACUGGCUGCUUCUUCUUCUGAGAAAAAAUGUCUUUUGCUUCAUUUUCCACUUCCGAUUCAUCUGAGCUCAACAGAGGAUUGAGCAUCA
B18: chr2:232320318:232320319:-_ENSG00000115053_ENST00000322723|hu_hu|hu_hu_hu_mus_True|28_28 (ssRNA)
RNA: GGGAGUUCUACAGUCCGACGAUCACUAUUAAAGUCUACAAAACCAAACCCUUUGGAAGAACCAGUUUCCCGAUCAGUGACUAUUCUUGCACGAACAGAGCCCUCAAAUGACUCCUUUAAGGUCUCUUCAGUGGUAUCCUCAGACAACAGAGGAUUGAGCAUCA
B19: 28110298_28115287_231_CDS_ENSMUSG00000002221_ENSMUST00000002291|mouse|control|control (ssRNA)
RNA: GGGAGUUCUACAGUCCGACGAUCAGUCACCCAGGAAGGCUUUACAACGGGCAAGUCAAAGACCUCACGGGCUUCUCCCACCUCUGGGUUGUCCCCAUCCUCUGAAAUGAUGUGUGAGGCCAGGGCAUUGUAGGAGACUUCCUUCAACAGAGGAUUGAGCAUCA
B20: 153055496_153055616_3423_3pUTR_ENSMUSG00000051413_ENSMUST00000056924|mouse|control|control (ssRNA)
RNA: GGGAGUUCUACAGUCCGACGAUCGGGGCAGGGAAGAACUGGUGGGAGGUUGAGGCAGUUCCUAGGUAGUCUGUCCUGAAACCCUAGUGGAGAAGCCAGCAAACGGCACCACUAACACAAGUGCCCAGGCUGCUGGCUACAUCUCAACAGAGGAUUGAGCAUCA
B21: chr17:53040142:53040143:-_ENSG00000166260_ENST00000299335|hu_hu|FALSE|FALSE (ssRNA)
RNA: GGGAGUUCUACAGUCCGACGAUCCUGACUUCAAUUAUAUCCUGGAACUGGCAACUUGUGCCCUUCCUUUGCUUCAAAAAAAGUGUAAGAAAGAGUGAUAAGAUCAACUUUAAUCAUUCUUGGAUCUUCAGCAAAUUCAGGAUCCAACAGAGGAUUGAGCAUCA
B22: 25990515_25991650_895_CDS_ENSG00000143970_ENST00000336112|human|control|control (ssRNA)
RNA: GGGAGUUCUACAGUCCGACGAUCUUUAACUGAGGAAGAAAAGCUGGAGUUUGAGUUUUGAGGGCUGCCUGUCUGUCCAUCAGAUUGCUUUCCUUCCCAUGUUGCAGGUUUGGCAGGUACAGAGUCACUGGCUGCUUUGACAGUCAACAGAGGAUUGAGCAUCA

The list shows a part of the results.

The assay addresses T1, UNK ZnF1-3. In words: nsRBNS (natural sequence RNA bind-n-seq); RBNS binding buffer (assumed for nsRBNS): 25 mM Tris pH 7.5, 150 mM KCl, 3 mM MgCl2, 0.01% Triton X-100, 500 ug/ml BSA, 20 U/ml SUPERase-In, 4 C; UNK is unkempt and MSI1 is Musashi-1; names of the RNAs are library labels; protein concentration not given here; high values mean tight binding.
B1 showed a binding signal of 1.26 enrichment R.
For B2 the value was 0.65 enrichment R; for B3, 1.23 enrichment R; for B4, 1.88 enrichment R.
For B5 the value was 1.39 enrichment R.
In the case of B6, the binding signal came out at 1.42 enrichment R.
B7 displayed a binding signal of 0.918 enrichment R.
The same measure for B8: 1.05 enrichment R; for B9: 0.608 enrichment R; for B10: 0.826 enrichment R.
For B11 the value was 1.1 enrichment R.
The molecule B12 registered a binding signal of 0.523 enrichment R.
B13 displayed a binding signal of 0.445 enrichment R.
For the molecule B14, the binding signal is 0.426 enrichment R.
Take B15: the binding signal was 1.1 enrichment R.
B16: the binding signal stood at 1.35 enrichment R.
The same measure for B17: 0.461 enrichment R.
For B18 the value was 0.466 enrichment R; for B19, 1.02 enrichment R.
Turning to B20, the binding signal was 1.46 enrichment R.
The same measure for B21: 0.693 enrichment R.
B22 displayed a binding signal of 0.746 enrichment R.
